Experimental data published in the supplement of paper PMC4604168 (melanoma cell lines).
This is one part of the list. Many values rest on one well or one pass, so single values are uncertain.

Each compound was assayed on WM1745 (assay: cell count relative to DMSO control; melanoma cells; higher = more viable cells). Conditions: library dose: low library concentration; 72 h; first compound 0.4 µM.
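Also: cell number obtained by counting DAPI-stained nuclei in high-throughput microscope images with image analysis software, screen run in 1,536-well plates.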

Row | Structure (SMILES) | cell count [%]
1 | Cn1sc(=O)n(Cc2ccccc2)c1=O + Cc1cc(N2CCOCC2)cc2[nH]c(-c3c(NC[C@@H](O)c4cccc(Cl)c4)cc[nH]c3=O)nc12 [BMS536924] (partner dose 0.2 µM) | 77.6
2 | CCCCCCCCCCCCCCCCCCOP(=O)([O-])OC1CC[N+](C)(C)CC1 [Perifosine] + C[C@@H]1CCN(C(=O)CC#N)C[C@@H]1N(C)c1ncnc2[nH]ccc12 [CP690550] (partner dose 1 µM) | 76.5
3 | CCCCCCCCCCCCCCCCCCOP(=O)([O-])OC1CC[N+](C)(C)CC1 [Perifosine] + OCCn1cc(-c2cnc3nnn(Cc4ccc5ncccc5c4)c3n2)cn1 [PF04217903] (partner dose 1 µM) | 68.3
4 | CCCCCCCCCCCCCCCCCCOP(=O)([O-])OC1CC[N+](C)(C)CC1 [Perifosine] + O=C(O)c1ccc2c(c1)nc(Nc1cccc(Cl)c1)c1ccncc12 [CX4945] (partner dose 0.4 µM) | 107
5 | Cn1sc(=O)n(Cc2ccccc2)c1=O + O=C(CCCCCCC(=O)Nc1ccccc1)NO [vorinostat] (partner dose 0.08 µM) | 92.1
6 | C[C@@H](N)c1ccc(C(=O)Nc2ccnc3[nH]ccc23)cc1 + CC(C)C[C@H](NC(=O)[C@H](Cc1ccccc1)NC(=O)c1cnccn1)B(O)O [Bortezomib] (partner dose 0.001 µM) | 65.3
7 | CCCCCCCCCCCCCCCCCCOP(=O)([O-])OC1CC[N+](C)(C)CC1 [Perifosine] + O=c1[nH]nc(Sc2ncc([N+](=O)[O-])s2)n1-c1ccc2c(c1)OCCO2 [BI78D3] (partner dose 0.2 µM) | 99.3
8 | C[C@@H](N)c1ccc(C(=O)Nc2ccnc3[nH]ccc23)cc1 + Cc1cc([N+](=O)[O-])ccc1NS(=O)(=O)c1cc(Cl)ccc1Cl [FH535] (partner dose 1 µM) | 79.1
9 | C[C@@H](N)c1ccc(C(=O)Nc2ccnc3[nH]ccc23)cc1 + c1cc(-c2cnn3cc(-c4ccc(OCCN5CCCCC5)cc4)cnc23)ccn1 [Dorsomorphin] (partner dose 0.4 µM) | 73
10 | CCCCCCCCCCCCCCCCCCOP(=O)([O-])OC1CC[N+](C)(C)CC1 [Perifosine] + O=C(/C=C/c1cccnc1)NCCCCC1CCN(C(=O)c2ccccc2)CC1 [FK866] (partner dose 0.01 µM) | 102
11 | Cn1sc(=O)n(Cc2ccccc2)c1=O + CN(NC(=O)CC(=O)NN(C)C(=S)c1ccccc1)C(=S)c1ccccc1 [STA4783] (partner dose 0.006 µM) | 31.1
12 | CCCCCCCCCCCCCCCCCCOP(=O)([O-])OC1CC[N+](C)(C)CC1 [Perifosine] + COc1cc2c(Oc3ccc4[nH]c(C)cc4c3F)ncnc2cc1OCCCN1CCCC1 [cediranib] (partner dose 0.4 µM) | 104
13 | C[C@@H](N)c1ccc(C(=O)Nc2ccnc3[nH]ccc23)cc1 + O=C(Nc1ccccc1)c1cc([N+](=O)[O-])ccc1Cl [GW9662] (partner dose 2 µM) | 87.9
14 | CCCCCCCCCCCCCCCCCCOP(=O)([O-])OC1CC[N+](C)(C)CC1 [Perifosine] + COc1ccc(Cl)c(Nc2nc3ccccc3nc2NS(=O)(=O)c2cccc(NC(=O)C(C)(C)N)c2)c1 [XL147] (partner dose 0.8 µM) | 97.8
15 | CCCCCCCCCCCCCCCCCCOP(=O)([O-])OC1CC[N+](C)(C)CC1 [Perifosine] + COC(=O)c1sccc1S(=O)(=O)Nc1ccc(Nc2ccccc2)cc1OC [GSK0660] (partner dose 1 µM) | 96.2
16 | Cn1sc(=O)n(Cc2ccccc2)c1=O + NC(=O)Nc1cc(-c2cccc(F)c2)sc1C(=O)N[C@H]1CCCNC1 [AZD7762] (partner dose 0.02 µM) | 108
17 | C[C@@H](N)c1ccc(C(=O)Nc2ccnc3[nH]ccc23)cc1 + CS(=O)(=O)CCNCc1ccc(-c2ccc3ncnc(Nc4ccc(OCc5cccc(F)c5)c(Cl)c4)c3c2)o1 [lapatinib] (partner dose 0.8 µM) | 64.5
18 | Cn1sc(=O)n(Cc2ccccc2)c1=O + C[C@]1(c2nc3c(C(N)=O)cccc3[nH]2)CCCN1 [Veliparib] (partner dose 1.4 µM) | 85.9
19 | C[C@@H](N)c1ccc(C(=O)Nc2ccnc3[nH]ccc23)cc1 + COc1ccc(Cl)c(Nc2nc3ccccc3nc2NS(=O)(=O)c2cccc(NC(=O)C(C)(C)N)c2)c1 [XL147] (partner dose 0.8 µM) | 60.4
